Measurements as given in publication PMC6999911, “New 2-Ethylthio-4-methylaminoquinazoline derivatives inhibiting two subunits of cytochrome bc1 in Mycobacterium tuberculosis” (PLoS Pathogens, 2020).
≈ marks a conversion by molar mass, not a printed value.

Tested on: M. tb strain H37Rv
Assay: Resazurin microtiter assay (REMA), MIC
Details: for MIC: Mycobacterium tuberculosis, H37RV, Mycobacterium tuberculosis H37Rv (Table 1); for Change in the MIC with acetate as the sole carbon source: H37Rv grown in 7H9-based media containing acetate

## CO[C@H]1/C=C/O[C@@]2(C)Oc3c(C)c(O)c4c(O)c(c(/C=N/N5CCN(C)CC5)c(O)c4c3C2=O)NC(=O)/C(C)=C\C=C\[C@H](C)[C@H](O)[C@@H](C)[C@@H](O)[C@@H](C)[C@H](OC(C)=O)[C@@H]1C [RIF, rifampicin, reference compound]
  MIC: 0.0008 mg/L (≈ 0.000972 µM)

## CCNc1nc(SCC)nc2ccccc12 [Compound 11626142]
  Change in the MIC with acetate as the sole carbon source: no significant change
  MIC: 0.09 mg/L (≈ 0.386 µM)

## CCSc1nc(NC)c2cccc(F)c2n1 [Compound 11626252]
  Change in the MIC with acetate as the sole carbon source: no significant change
  MIC: 0.02 mg/L (≈ 0.0843 µM)

## CCSc1nc(NC)c2cc(F)ccc2n1 [Compound 11626256]
REMA, MIC99 referred to as MIC, in vitro
  H37Rv MIC: 0.04 mg/L

## CCSc1nc(NC)c2ccccc2n1 [Compound 11626141]
  Change in the MIC with acetate as the sole carbon source: no significant change
  MIC: 0.04 mg/L (≈ 0.182 µM)
